The text below walks through data of patent US20250297021A1 (SHANDONG SIMCERE BIOPHARMACEUTICAL CO NO 1, published 2025).

In assay [1] the target is T1, human BCMA on cells (human, UniProt Q02223 1-184).
T1 construct: whole, on cells; also called H929 cells; U266 cells
T1 sequence (looked up): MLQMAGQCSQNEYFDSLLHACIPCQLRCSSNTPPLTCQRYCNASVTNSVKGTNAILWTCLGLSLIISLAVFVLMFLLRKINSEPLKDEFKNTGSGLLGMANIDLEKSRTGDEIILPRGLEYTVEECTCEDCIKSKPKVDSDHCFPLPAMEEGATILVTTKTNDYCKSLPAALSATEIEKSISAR
Briefly: FACS, U266 cells. The procedure:
The desired cells were scale-up cultured in T-75 cell culture flasks to the logarithmic growth phase, and the cells were pipetted into a single cell suspension. After the cells were counted, the cells were centrifuged and the cell pellet was resuspended in FACS buffer (PBS+2% fetal calf serum) to 2×10⁶ cells per ml, and the suspension was added to the 96-well FACS reaction plate at 50 μl per well, then the sample to be tested of the chimeric antibody was added at 50 μl per well and the mixture was incubated at 4° C. for 1 h. The obtained mixture was centrifuged and washed 3 times with a PBS buffer. […] The obtained mixture was centrifuged and washed 3 times with a PBS buffer. 100 μl of the mixture was taken for detection and result analysis by FACS (FACS Canto™, purchased from BD Company). Data analysis was performed by software (FlowJo) to obtain the mean fluorescence intensity (MFI) of the cells. Then, a software (GraphPad Prism8) was used for analysis, data fitting and EC50 calculation. The results are shown in Table 10 and FIGS. 10A-10B, FIGS. 11A-11B, and FIGS. 12A-12B. All seven chimeric antibodies bind to three types of BCMA-expressing endogenous cells.

Assay [2] deals with T2, human BCMA-His protein (human, UniProt Q02223 1-54).
T2 construct: bought; also called human BCMA protein; not shown: His tag
T2 sequence (looked up): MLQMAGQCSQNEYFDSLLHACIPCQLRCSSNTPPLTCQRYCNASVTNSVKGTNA
Nature of the assay: ELISA, human BCMA-His coated; Ab 0.01 nM. The procedure: (§1) The specific method was as follows: Human BCMA protein (purchased from Acro, catalog number: BCA-H522y) and monkey BCMA protein (purchased from Acro, catalog number: BCA-C52H7) were diluted with PBS to a final concentration of 1 μg/mL, respectively, and then added to a 96-well ELISA plate at 50 μl/well. The plate was sealed with a plastic film and incubated overnight at 4° C., the plate was washed twice with PBS the next day, and then a blocking solution [PBS+2% (w/v) BSA] was added for blocking at room temperature for 2 h. The blocking solution was discarded, the plate was washed 3 times with PBS, and 100 nM BCMA human-mouse chimeric antibody diluted gradiently or control antibody was added at 50 μl/well. After incubation at 37° C. for 2 h, the plate was washed 3 times with PBS. HRP (horseradish peroxidase)-labeled secondary antibody (purchased from Merck, catalog number: AP113P) was added, and incubated at 37° C. for 1 h, and the plate was washed 5 times with PBS. TMB substrate was added at 50 μl/well, and incubated at room temperature for 10 min, then a stop solution (1.0 M HCl) was added at 50 μl/well. The OD450 nm values were read by an ELISA microplate reader (Multimode Plate Reader, EnSight, purchased from Perkin Elmer). The results are shown in Table 7, Table 8 and FIGS. 7A-7B and FIG. 8A-8B. All chimeric antibodies have good binding activity with human BCMA protein; except that BCMA-mAb06 has no cross-binding activity with monkey BCMA protein and BCMA-mAb07 has weak binding to monkey BCMA protein, other chimeric antibodies have good binding activity with monkey BCMA protein. The IgG subtype control is human IgG1.
On the technique in general: In an ELISA, binding on a coated surface is turned into a signal by an enzyme label.

Assay [3] has as its target T3, monkey BCMA-His protein (monkey, UniProt A0A2K5UD97 1-53).
T3 construct: bought; monkey species not further stated for this product; also called monkey BCMA protein
Nature of the assay: ELISA, monkey BCMA-His coated; Ab 0.1 nM. The procedure: as §1

Assay [4] addresses T3, monkey BCMA-His protein. Nature of the assay: ELISA, monkey BCMA-His coated; Ab 0.01 nM. As to the method: as §1
In assay [5] the target is T1, human BCMA on cells. Briefly: cell ELISA, Flp-inCHO-human BCMA cells; Ab 11.11 nM. The source says: (§2) The specific method was as follows: The required cells were scale-up cultured in a T-75 cell culture flask to the logarithmic growth phase, the medium was aspirated, the cells were washed twice with a PBS buffer, and then digested with trypsin. Then the digestion was terminated with a complete medium, and the cells were pipetted to obtain a single cell suspension. After the cells were counted and centrifuged, the cell precipitate was resuspended to 4×10⁵ cells per milliliter with a complete medium, and the suspension was added to a 96-well flat-bottomed cell culture plate at 100 μl/well, and cultured overnight in a 37° C., 5% carbon dioxide incubator. On the next day, the medium in the 96-well plate was discarded, the cells were washed once with PBS, and then fixed at room temperature for 0.5 h with an immunostaining fixative (purchased from Beyotime, catalog number: P0098-500 ml) at 50 μl/well. A blocking solution [PBS+5% (w/v) skim milk] was added for blocking at room temperature for 2 h. The blocking solution was discarded, the plate was washed 3 times with PBS, and 100 nM BCMA human-mouse chimeric antibody diluted gradiently or control antibody was added at 50 μl/well. After incubation at 37° C. for 2 h, the plate was washed 3 times with PBS. HRP (horseradish peroxidase)-labeled secondary antibody (purchased from Merck, catalog number: AP113P) was added, and incubated at 37° C. for 1 h, and the plate was washed 5 times with PBS. TMB substrate was added at 50 μl/well, and incubated at room temperature for 10 min, then a stop solution (1.0 M HCl) was added at 50 μl/well. The OD450 nm values were read by an ELISA microplate reader (Multimode Plate Reader, EnSight, purchased from Perkin Elmer). The chimeric antibodies bind well to Flp-inCHO-human BCMA cells. The IgG subtype control is human IgG1.

The target of assay [6] is T1, human BCMA on cells. Briefly: cell ELISA, Flp-inCHO-human BCMA cells; Ab 33.33 nM.
Text: as §2

Assay [7] addresses T1, human BCMA on cells. Nature of the assay: cell ELISA, Flp-inCHO-human BCMA cells; Ab 0.05 nM.
Text: as §2

The target in assay [8] is T1, human BCMA on cells. Briefly: cell ELISA, Flp-inCHO-human BCMA cells; Ab 3.70 nM.
Text: as §2

Assay [9] concerns the target T3, monkey BCMA-His protein. Nature of the assay: ELISA, monkey BCMA-His coated; Ab 10 nM. As to the method: as §1

T3 sequence (A0A2K5UD97 entry or part of it limits assumed): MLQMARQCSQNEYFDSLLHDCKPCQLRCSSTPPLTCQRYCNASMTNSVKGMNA

B1: BCMA-mAb06 (Fc fusion)
scFv: EVKLLQSGGGLVQPGGSLKLSCAASGIDFSRYWMSWVRRAPGKGLEWIGEINPDSSTINYAPSLKDEFIISRDNAKNTLYLQMSKVRSEDTALYYCAIFYYANYYAMDYWGQGTSVTVSSGGGGSGGGGSGGGGSDIVMTQSQKFMSTSVGDRVSVTCKASQNVDTNVAWYQQKPGQSPKALIYSASYRFSGVPDRFTGSGSGTDFTLTISNVQSEDLAEYFCQQYNGYPFTFASGTKLEIK[human IgG1 Fc with C220S (EU numbers) not spelt out]
Regarding B1, in assay [1], the concentration for a half-maximal effect (EC50) amounted to 3.23 nM. Moreover, the “Maximum mean fluorescence intensity” value in assay [1] amounted to 4550. The OD450 in assay [2] turned out to be 0.4; in assay [3], 0.1; in assay [4], 0.07; in [5], 1.28; in assay [6] it was 1.21; in assay [7] it was 0.27. For the same molecule, the OD450 in assay [8] is 0.96; in [9], 0.32.

As a reminder, the EC50 is the midpoint of the concentration-response curve.
